# Where a chain is given by its changes, count along the chain named. The list shows a part of the results.
# T1: RBFOX1 RRM (Homo sapiens, UniProt Q9NWB1 109-208)
# T1 sequence: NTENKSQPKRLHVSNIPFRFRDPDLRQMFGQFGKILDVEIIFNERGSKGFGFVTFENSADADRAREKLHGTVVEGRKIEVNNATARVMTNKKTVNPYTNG
# B1: AGAAUGC (DNA:RNA)
# RNA: GGGAGACCGGAAUUCAGAUUGUCCAGAAUGCUUAAAUCCCGUCGUAGCCACCA
# DNA 1: CAATCTGAATTCCGGTCTCCC
# DNA 2: TGGTGGCTACGACGGGATT
# B2: ACAGAAC (DNA:RNA)
# RNA: B1 RNA with G26C, A28G, U29A, G30A
# DNA 1: CAATCTGAATTCCGGTCTCCC
# DNA 2: TGGTGGCTACGACGGGATT
# B3: GCAGAAC (DNA:RNA)
# RNA: B1 RNA with A25G, G26C, A28G, U29A, G30A
# DNA 1: CAATCTGAATTCCGGTCTCCC
# DNA 2: TGGTGGCTACGACGGGATT
# B4: UUUGGCA (DNA:RNA)
# RNA: GGGAGACCGGAAUUCAGAUUGUCCUUUGGCAUUAAAUCCCGUCGUAGCCACCA
# DNA 1: CAATCTGAATTCCGGTCTCCC
# DNA 2: TGGTGGCTACGACGGGATT
# B5: AGUUACC (DNA:RNA)
# RNA: B1 RNA with A27U, A28U, U29A, G30C
# DNA 1: CAATCTGAATTCCGGTCTCCC
# DNA 2: TGGTGGCTACGACGGGATT
# B6: AACAGUC (DNA:RNA)
# RNA: B1 RNA with G26A, A27C, U29G, G30U
# DNA 1: CAATCTGAATTCCGGTCTCCC
# DNA 2: TGGTGGCTACGACGGGATT
# B7: GAAGGAU (DNA:RNA)
# RNA: B4 RNA with U25G, U26A, U27A, C30A, A31U
# DNA 1: CAATCTGAATTCCGGTCTCCC
# DNA 2: TGGTGGCTACGACGGGATT
# B8: UCUGAGG (DNA:RNA)
# RNA: B4 RNA with U26C, G29A, C30G, A31G
# DNA 1: CAATCTGAATTCCGGTCTCCC
# DNA 2: TGGTGGCTACGACGGGATT
# B9: GUGUUUU (DNA:RNA)
# RNA: B1 RNA with A25G, G26U, A27G, A28U, G30U, C31U
# DNA 1: CAATCTGAATTCCGGTCTCCC
# DNA 2: TGGTGGCTACGACGGGATT
# B10: AUGAGAA (DNA:RNA)
# RNA: B4 RNA with U25A, U27G, G28A, C30A
# DNA 1: CAATCTGAATTCCGGTCTCCC
# DNA 2: TGGTGGCTACGACGGGATT
# B11: UAAGGCU (DNA:RNA)
# RNA: B4 RNA with U26A, U27A, A31U
# DNA 1: CAATCTGAATTCCGGTCTCCC
# DNA 2: TGGTGGCTACGACGGGATT
# B12: UGAUGAA (DNA:RNA)
# RNA: B4 RNA with U26G, U27A, G28U, C30A
# DNA 1: CAATCTGAATTCCGGTCTCCC
# DNA 2: TGGTGGCTACGACGGGATT
# B13: UCAUCGU (DNA:RNA)
# RNA: B1 RNA with A25U, G26C, A28U, U29C, C31U
# DNA 1: CAATCTGAATTCCGGTCTCCC
# DNA 2: TGGTGGCTACGACGGGATT
# B14: AUCACCA (DNA:RNA)
# RNA: B4 RNA with U25A, U27C, G28A, G29C
# DNA 1: CAATCTGAATTCCGGTCTCCC
# DNA 2: TGGTGGCTACGACGGGATT
# B15: AGCCCUU (DNA:RNA)
# RNA: B1 RNA with A27C, A28C, U29C, G30U, C31U
# DNA 1: CAATCTGAATTCCGGTCTCCC
# DNA 2: TGGTGGCTACGACGGGATT
# B16: GUGCAAG (DNA:RNA)
# RNA: B4 RNA with U25G, U27G, G28C, G29A, C30A, A31G
# DNA 1: CAATCTGAATTCCGGTCTCCC
# DNA 2: TGGTGGCTACGACGGGATT
# B17: CGGGGAU (DNA:RNA)
# RNA: B4 RNA with U25C, U26G, U27G, C30A, A31U
# DNA 1: CAATCTGAATTCCGGTCTCCC
# DNA 2: TGGTGGCTACGACGGGATT
# B18: UCUCAGU (DNA:RNA)
# RNA: B4 RNA with U26C, G28C, G29A, C30G, A31U
# DNA 1: CAATCTGAATTCCGGTCTCCC
# DNA 2: TGGTGGCTACGACGGGATT
# B19: UCGUCCA (DNA:RNA)
# RNA: B4 RNA with U26C, U27G, G28U, G29C
# DNA 1: CAATCTGAATTCCGGTCTCCC
# DNA 2: TGGTGGCTACGACGGGATT
# B20: GCAUCUA (DNA:RNA)
# RNA: B1 RNA with A25G, G26C, A28U, U29C, G30U, C31A
# DNA 1: CAATCTGAATTCCGGTCTCCC
# DNA 2: TGGTGGCTACGACGGGATT
# B21: CACAUGC (DNA:RNA)
# RNA: B1 RNA with A25C, G26A, A27C
# DNA 1: CAATCTGAATTCCGGTCTCCC
# DNA 2: TGGTGGCTACGACGGGATT
# B22: UGCGUGC (DNA:RNA)
# RNA: B1 RNA with A25U, A27C, A28G
# DNA 1: CAATCTGAATTCCGGTCTCCC
# DNA 2: TGGTGGCTACGACGGGATT
# B23: GAUCGUC (DNA:RNA)
# RNA: B4 RNA with U25G, U26A, G28C, C30U, A31C
# DNA 1: CAATCTGAATTCCGGTCTCCC
# DNA 2: TGGTGGCTACGACGGGATT
# B24: CAGCAAA (DNA:RNA)
# RNA: B4 RNA with U25C, U26A, U27G, G28C, G29A, C30A
# DNA 1: CAATCTGAATTCCGGTCTCCC
# DNA 2: TGGTGGCTACGACGGGATT
# B25: GUAACAG (DNA:RNA)
# RNA: B1 RNA with A25G, G26U, U29C, G30A, C31G
# DNA 1: CAATCTGAATTCCGGTCTCCC
# DNA 2: TGGTGGCTACGACGGGATT
# B26: UGUCAGU (DNA:RNA)
# RNA: B1 RNA with A25U, A27U, A28C, U29A, C31U
# DNA 1: CAATCTGAATTCCGGTCTCCC
# DNA 2: TGGTGGCTACGACGGGATT
# B27: AAGCUGU (DNA:RNA)
# RNA: B1 RNA with G26A, A27G, A28C, C31U
# DNA 1: CAATCTGAATTCCGGTCTCCC
# DNA 2: TGGTGGCTACGACGGGATT
# B28: UCAGACA (DNA:RNA)
# RNA: B4 RNA with U26C, U27A, G29A
# DNA 1: CAATCTGAATTCCGGTCTCCC
# DNA 2: TGGTGGCTACGACGGGATT
# B29: CCAUCAC (DNA:RNA)
# RNA: B1 RNA with A25C, G26C, A28U, U29C, G30A
# DNA 1: CAATCTGAATTCCGGTCTCCC
# DNA 2: TGGTGGCTACGACGGGATT
# B30: GGUGGAC (DNA:RNA)
# RNA: B4 RNA with U25G, U26G, C30A, A31C
# DNA 1: CAATCTGAATTCCGGTCTCCC
# DNA 2: TGGTGGCTACGACGGGATT
# B31: UAGGCGC (DNA:RNA)
# RNA: B1 RNA with A25U, G26A, A27G, A28G, U29C
# DNA 1: CAATCTGAATTCCGGTCTCCC
# DNA 2: TGGTGGCTACGACGGGATT
# Target: T1, RBFOX1 RRM
# Test: EMSA; HiTS-Eq, 1 nM pool, 10 min; buffer printed only for the single-RNA assays: 10 mM Tris pH 7.5, 150 mM NaCl, 3.4 mM EDTA, 0.001% NP-40, 30 C
# Settings: tags: His6 N-terminal (pET28a); label: 5' 32P
# Summary of the method: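 Purified RbFox RRM, wild type or mutant, was incubated for 10 min in 50 µL with 1 nM of a 5′-radiolabelled RNA pool carrying 7 randomized nucleotides, whose flanks were annealed to DNA oligonucleotides, over a series of increasing protein concentrations. Unbound RNA was resolved on 8% native PAGE, cut out, reverse-transcribed, barcoded by PCR and sequenced on an Illumina HiSeq 2500. Relative association constants were derived from changes in read counts for each RNA species versus the control reaction and normalised to the cognate motif.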
row,Binder,binding signal
1,B1,0.022 KA relative to UGCAUGU
2,B2,0.00243 KA relative to UGCAUGU
3,B3,0.00845 KA relative to UGCAUGU
4,B4,0.0195 KA relative to UGCAUGU
5,B5,0.00334 KA relative to UGCAUGU
6,B6,0.00592 KA relative to UGCAUGU
7,B7,0.00434 KA relative to UGCAUGU
8,B8,0.00717 KA relative to UGCAUGU
9,B9,0.0201 KA relative to UGCAUGU
10,B10,0.00671 KA relative to UGCAUGU
11,B11,0.0114 KA relative to UGCAUGU
12,B12,0.0191 KA relative to UGCAUGU
13,B13,0.0124 KA relative to UGCAUGU
14,B14,0.00177 KA relative to UGCAUGU
15,B15,0.00485 KA relative to UGCAUGU
16,B16,0.0274 KA relative to UGCAUGU

row,Binder,binding signal
1,B17,0.0184 KA relative to UGCAUGU
2,B18,0.0101 KA relative to UGCAUGU
3,B19,0.0076 KA relative to UGCAUGU
4,B20,0.0126 KA relative to UGCAUGU
5,B21,0.00424 KA relative to UGCAUGU
6,B22,0.0465 KA relative to UGCAUGU
7,B23,0.0199 KA relative to UGCAUGU
8,B24,0.00133 KA relative to UGCAUGU
9,B25,0.0117 KA relative to UGCAUGU
10,B26,0.0169 KA relative to UGCAUGU
11,B27,0.00977 KA relative to UGCAUGU
12,B28,0.000675 KA relative to UGCAUGU
13,B29,0.0034 KA relative to UGCAUGU
14,B30,0.00935 KA relative to UGCAUGU
15,B31,0.0153 KA relative to UGCAUGU

# — PMC9911399, “Two distinct binding modes provide the RNA-binding protein RbFox with extraordinary sequence specificity”
